Experimental data taken from US9045526B2 (THE REGENTS OF THE UNIVERSITY OF MICHIGAN, priority 2011, dated 2015).
Numbered stars: 1 amine (or outer) side, 2 acyl side, 3 side chain; on linkers, the order of the positions; unused ones are H or OH. Bridge positions count the residues as written; N and C are the ends. Square brackets hold non-standard residues; d marks the D form. Peptide text beside a SMILES is read from it. * marks the point of attachment. βGlc = OC[C@H]1O[C@@H](*)[C@H](O)[C@@H](O)[C@@H]1O; Dmt = Cc1cc(O)cc(C)c1C[C@H](N)C(=O)O; dPen = CC(C)(S)[C@@H](N)C(=O)O; Aic = NC1(C(=O)O)Cc2ccccc2C1; CH2CH2 = C(C[*:2])[*:1]

Legend:
mu-opioid receptor (MOR) = target: T1, mu-opioid receptor (MOR) (Rattus norvegicus, UniProt P33535); settings: JOM-6 data taken from McFadyen et al. 2000; read-out: binding affinity at MOR; cited from earlier work
T1 construct: expressed in transfected cells; host or cells: C6 rat glioma cells (C6-MOR), stably transfected

[1] = target: T2, delta-opioid receptor (DOR) (Rattus norvegicus, UniProt P33533); settings: JOM-6 data taken from McFadyen et al. 2000; read-out: binding affinity at DOR; cited from earlier work
T2 construct: expressed in transfected cells; host or cells: C6 rat glioma cells (C6-DOR), stably transfected

MOR = MOR (Rattus norvegicus, UniProt P33535); experiment: MOR | EC50, nM; set-up: expressed in transfected cells; host or cells: C6 rat glioma cells (C6-MOR), stably transfected
Description: (§1) Table printed on a drawing sheet, FIGURE 5

DOR [2] = target: T3, DOR (Rattus norvegicus, UniProt P33533); experiment: DOR | EC50; set-up: expressed in transfected cells; host or cells: C6 rat glioma cells (C6-DOR), stably transfected
Description: as §1
Head of the field: DOR | EC50

DOR [3] = target: T3, DOR; experiment: DOR | % max.; set-up: expressed in transfected cells; host or cells: C6 rat glioma cells (C6-DOR), stably transfected; settings: 10 µM
Description: as §1
Head of the field: DOR | % max.

T3 sequence (P33533 whole entry, looked up): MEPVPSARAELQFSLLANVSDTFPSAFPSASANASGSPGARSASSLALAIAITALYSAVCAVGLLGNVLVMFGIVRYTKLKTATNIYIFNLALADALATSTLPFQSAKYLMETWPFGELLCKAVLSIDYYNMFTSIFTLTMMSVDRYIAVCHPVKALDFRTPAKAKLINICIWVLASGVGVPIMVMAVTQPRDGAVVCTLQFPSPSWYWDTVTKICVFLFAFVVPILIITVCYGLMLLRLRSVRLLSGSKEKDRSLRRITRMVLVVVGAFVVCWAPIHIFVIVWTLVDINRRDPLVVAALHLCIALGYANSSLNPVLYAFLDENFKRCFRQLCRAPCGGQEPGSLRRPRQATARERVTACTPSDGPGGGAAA
MOR, sequence (P33535 whole entry, looked up): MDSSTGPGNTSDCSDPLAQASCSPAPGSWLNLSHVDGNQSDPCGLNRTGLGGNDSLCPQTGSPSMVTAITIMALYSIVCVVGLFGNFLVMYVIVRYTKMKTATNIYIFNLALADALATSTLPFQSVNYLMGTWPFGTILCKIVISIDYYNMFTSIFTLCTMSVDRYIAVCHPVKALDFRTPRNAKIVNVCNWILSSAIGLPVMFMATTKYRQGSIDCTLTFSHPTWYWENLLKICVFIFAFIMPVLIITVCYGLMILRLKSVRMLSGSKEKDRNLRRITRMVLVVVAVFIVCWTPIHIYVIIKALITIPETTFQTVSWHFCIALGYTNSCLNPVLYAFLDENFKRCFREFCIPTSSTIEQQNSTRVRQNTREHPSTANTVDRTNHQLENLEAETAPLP
T1 sequence (P33535 whole entry): as the sequence (P33535 whole entry, looked up) above
T2 sequence (P33533 whole entry): as the sequence (P33533 whole entry, looked up) above

Compound	Ki (mu-opioid receptor (MOR)) [nM]	Ki [1] [nM]	EC50 (MOR) [nM]	EC50 (DOR [2]) [nM]	DOR | % max. (DOR [3]) [% max.]
Tyr-(S—CH2-CH2-S)-D-Cys-Phe-D-Pen-NH2 [JOM-6]	0.3	25	–	–	–
Cc1cc(O)cc(C)c1C[C@H](N)C(=O)N[C@@H]1CSCCSC(C)(C)[C@H](C(=O)N[C@@H](CCCNC(=N)N)C(N)=O)NC(=O)C2(Cc3ccccc3C2)NC1=O [VRP-24] (H-[Dmt][dC][Aic][dPen]R-NH2; linker 2-4 via CH2CH2)	–	–	19.6 ± 6	210 ± 150	9.3 ± 6.2
Cc1cc(O)cc(C)c1C[C@H](N)C(=O)N[C@@H]1CSCCSC(C)(C)[C@H](C(=O)N[C@@H](CO[C@@H]2O[C@H](CO)[C@@H](O)[C@H](O)[C@H]2O)C(N)=O)NC(=O)C2(Cc3ccccc3C2)NC1=O [VRP-26] (H-[Dmt][dC][Aic][dPen]S(βGlc)-NH2; linker 2-4 via CH2CH2; N-terminus assumed)	–	–	15.3 ± 4.5	–	–
Cc1cc(O)cc(C)c1C[C@H](N)C(=O)N[C@@H]1CSCCSC(C)(C)[C@H](C(=O)N[C@@H](CO)C(N)=O)NC(=O)C2(Cc3ccccc3C2)NC1=O [VRP-19] (H-[Dmt][dC][Aic][dPen]S-NH2; linker 2-4 via CH2CH2)	–	–	–	–	7.53 ± 1.2
